{"source": "patent US20190314452A1", "about": "(YUHAN, published 2019)", "binders": {"B1": {"name": "Fc-FGF21 (Lilly) (Fc fusion)", "chain": "[human IgG4 Fc with S228P F234A L235A (EU numbers) left out here]GGGGSGGGGSGGGGSAHPIPDSSPLLQFGGQVRQRYLYTDDAQQTECHLEIREDGTVGCAADQSPESLLQLKALKPGVIQILGVKTSRFLCQRPDGALYGSLHFDPEACSFREDLKEDGYNVYQSEAHGLPLHLPGDKSPHRKPAPRGPARFLPLPGLPPALPEPPGILAPQPPDVGSSDPLRLVEPSQLRSPSFE"}}, "target": "T1, human β-klotho (human, UniProt Q86Z14 1-1044)", "T1 sequence (looked up)": "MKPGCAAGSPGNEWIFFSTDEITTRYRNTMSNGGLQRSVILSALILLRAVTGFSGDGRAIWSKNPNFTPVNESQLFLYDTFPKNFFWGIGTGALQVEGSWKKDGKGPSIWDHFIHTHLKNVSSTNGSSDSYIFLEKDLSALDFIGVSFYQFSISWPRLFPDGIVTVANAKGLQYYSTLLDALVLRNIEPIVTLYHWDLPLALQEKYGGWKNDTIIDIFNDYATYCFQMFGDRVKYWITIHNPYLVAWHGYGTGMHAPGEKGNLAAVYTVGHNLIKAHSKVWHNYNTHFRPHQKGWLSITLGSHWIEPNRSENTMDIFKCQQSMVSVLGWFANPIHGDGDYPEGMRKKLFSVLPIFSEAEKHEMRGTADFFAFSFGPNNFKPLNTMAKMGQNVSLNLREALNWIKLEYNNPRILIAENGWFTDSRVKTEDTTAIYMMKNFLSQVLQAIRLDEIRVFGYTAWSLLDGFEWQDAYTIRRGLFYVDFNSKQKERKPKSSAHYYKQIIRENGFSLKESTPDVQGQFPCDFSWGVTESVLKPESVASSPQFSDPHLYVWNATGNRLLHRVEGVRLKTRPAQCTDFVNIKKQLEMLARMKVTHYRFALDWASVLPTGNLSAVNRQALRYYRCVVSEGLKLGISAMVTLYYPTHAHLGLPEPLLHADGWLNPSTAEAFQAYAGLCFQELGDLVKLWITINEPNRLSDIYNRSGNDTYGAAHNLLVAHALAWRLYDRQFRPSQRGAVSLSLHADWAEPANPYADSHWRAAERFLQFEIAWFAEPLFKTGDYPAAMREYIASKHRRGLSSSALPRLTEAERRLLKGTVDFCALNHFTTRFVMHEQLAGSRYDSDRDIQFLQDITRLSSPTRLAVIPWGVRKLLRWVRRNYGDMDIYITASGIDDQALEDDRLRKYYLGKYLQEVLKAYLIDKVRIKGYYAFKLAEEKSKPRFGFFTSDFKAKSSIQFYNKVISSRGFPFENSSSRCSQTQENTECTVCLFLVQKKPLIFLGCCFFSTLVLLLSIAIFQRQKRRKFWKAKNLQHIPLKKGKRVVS", "experiment": "cell-based or functional assay", "data": [{"binder": "B1", "values": [{"measurement": "in vitro FGF21 activity (ERK phosphorylation, EC50 compared)", "value": "2 times higher than DFD1 and RGE (Amgen)"}]}]}
